Assay results taken from PubChem BioAssay AID1347073 (National Center for Advancing Translational Sciences (NCATS), 2019).
The campaign covered roughly 45,000 compounds. About 200 (0.44%) were called active. About 7% were inconclusive and are not listed. The call rests on the fitted dose curve; in most records, active means well fitted activation curve with a large enough effect; inconclusive means small, poorly fitted or top-dose-only effect; inactive means no such curve, though single readings can be large or run the other way. The list shows a part of the results.

assay: qHTS of TDP-43 Inhibitors: NCGC Sytravon Library Screen; settings: yeast TDP-43 toxicity rescue, BacTiter-Glo growth, 24 h; series mostly up to 46.1 µM; growth rescue (activation): at the top concentration; further: 0% is about no effect; nearly all actives have a fitted effect of over 55% in size
Method in brief: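 TDP-43-expressing yeast, pregrown in raffinose, seeded at OD600 0.02 in galactose medium with compound for 24 hr at 30 deg C. Growth read by BacTiter-Glo luminescence, so rescue of toxicity appears as activation.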

Row | SMILES | growth rescue (activation)
1 | COCCNC(=O)C1(C)CCCN(C(=O)c2ccc(C)c(F)c2)C1 (stereo unspecified) | inactive: 1.2%
2 | c1cc2c(cc1C1=NNC(=NC3CC3)SC1)OCCO2 | inactive: -24%
3 | Cc1cc(NC(=O)c2ccc(F)cc2)n(CCOC(=O)c2ccc(F)cc2)n1 | inactive: 13%
4 | CC(=O)Nc1ccc(SCC(=O)N(C)C2CCS(=O)(=O)C2)cc1 (stereo unspecified) | inactive: 4.19%
5 | O=C(NC(=S)Nc1cccc(S(=O)(=O)NC2=NCCC2)c1)c1cc(-c2ccco2)nc2ccccc12 | inactive: 1.72%
6 | O=C(NCc1ccccc1)C(c1ccccc1F)N(C(=O)c1csnn1)C1CCCC1 (stereo unspecified) | inactive: 2.85%
7 | COc1ccc(-c2nnc(SCC(=O)Nc3ccc(C(=O)O)cc3)n2-c2ccc(Cl)cc2)cc1 | inactive: -2.44%
8 | Cc1cc(C(=O)NNC(=O)c2ccc(S(=O)(=O)N(C)C)cc2)c(C)o1 | inactive: 13.3%
9 | COc1ccc(C)cc1Nc1nc(-c2c[nH]c3ccccc23)cs1 | inactive: -5.35%
10 | Cc1sc2nc(COC(=O)CNC(=O)c3ccc(C(C)(C)C)cc3)[nH]c(=O)c2c1C | inactive: 14.4%
11 | COc1cccc(C2C(C(=O)c3ccc(C)o3)=C(O)C(=O)N2CCN2CCOCC2)c1OC (stereo unspecified) | inactive: 6.73%
12 | CCNC(=O)C1(C)CCCN(C(=O)c2ccc3c(c2)C(C)(C)CCC3(C)C)C1 (stereo unspecified) | inactive: 13.4%
13 | CCOc1ccc(N2CC(C(=O)Nc3cc(OCC)c(N4CCOCC4)cc3OCC)CC2=O)cc1 (stereo unspecified) | inactive: 21.1%
14 | CO/N=C/C(C(C)=O)C(=O)Nc1ccc(Cl)cc1Cl (stereo unspecified) | inactive: 6.92%
15 | O=C(O)CCCC(=O)N1N=C(c2ccccc2)CC1c1ccc2nccnc2c1 (stereo unspecified) | inactive: 2.79%
16 | O=C(CN1C(=O)NC2(CCOc3ccccc32)C1=O)c1cccs1 (stereo unspecified) | inactive: 9.41%
17 | CCCn1nc(NC(=O)CC(C)C)c2cc3cccc(C)c3nc21 | inactive: 6.34%
18 | COc1ccc(CCN2CC(C(=O)NCc3ccc(F)cc3)CC2=O)cc1OC (stereo unspecified) | inactive: 1.73%
19 | COc1ccc(CCNC(=O)C2CCCN(c3nc4ccccc4s3)C2)cc1OC (stereo unspecified) | inactive: 9.7%
20 | COc1ccc(C(=O)NC(C)c2ccc(-n3ccnc3)cc2)cc1[N+](=O)[O-] (stereo unspecified) | inactive: 8.95%
21 | O=C(/C=C/c1ccc2c(c1)OCO2)c1ccccn1 | inactive: 20.7%
22 | COc1ccc(Cl)cc1NC(=O)NCCN1CCCCC1 | inactive: 16.2%

Row | SMILES | growth rescue (activation)
23 | CC(C)(C)SCCNC(=O)c1ccc(Cl)c([N+](=O)[O-])c1 | inactive: -52.7%
24 | CCc1nc2ccc(C(=O)N3CCN(S(=O)(=O)CC)CC3)cn2c1N(CCC(C)C)CCN(C)C | inactive: -2.97%
25 | Cc1cc(C)c(S(=O)(=O)n2c([N+](=O)[O-])cnc2C)c(C)c1 | inactive: 16.7%
26 | COc1ccc(OC)c(N(CC(=O)Nc2cccc(C(F)(F)F)c2)S(C)(=O)=O)c1 | inactive: -3.81%
27 | COc1ccc(CCNC(=O)c2cc(-c3ccc(Cl)c(Cl)c3)oc2C)cc1 | inactive: 8.71%
28 | Cc1cccc(C(=O)NNC(=O)CCC(=O)Nc2cccc(Cl)c2C)c1 | inactive: 14.4%
29 | COc1cccc(C(NC(C)=O)c2nc(-c3cccc(C(=O)O)c3)cs2)c1 (stereo unspecified) | inactive: -0.622%
30 | COc1ccccc1CNc1nc(C)c(C(=O)N(C)C)s1 | inactive: 14.8%
31 | CCSc1nnc(NC(=O)NC(C)(C(F)(F)F)C(F)(F)F)s1 | inactive: 9.45%
32 | Cc1nc2c(-c3ccccc3)c[nH]n2c(=O)c1Cc1ccccc1 | inactive: 1.5%
33 | CC(C)C(Nc1ccc(C(F)(F)F)cc1[N+](=O)[O-])C(=O)O (stereo unspecified) | inactive: -8.62%
34 | CC(C)CCNC(=O)CN1N=C(c2ccc(Cl)cc2)CCC1=O | inactive: 13.5%
35 | COCOc1ccc(-c2ncc(OC)nc2NC(=O)c2cc(C)oc2C)cc1 | inactive: -7.48%
36 | CC1CCN(c2ccccc2NC(=O)c2ccc(Br)o2)CC1 | inactive: 11.9%
37 | O=C(NC1CCCC1)C1CC(O)CN1C(=O)Nc1ccccc1 (stereo unspecified) | inactive: 1.77%
38 | O=C(C[n+]1cc(-c2ccc(F)cc2)n2c1CCC2)N1c2ccccc2Sc2ccccc21 | inactive: -11.3%
39 | CC(C)(C)NS(=O)(=O)c1cc(C(=O)Nc2sccc2C#N)ccc1Cl | inactive: 12.2%
40 | COc1ccc2[nH]cc(C(=O)NCCc3ccccc3)c(=O)c2c1 | inactive: 5.15%
41 | Cc1cc(C)n(-c2ccc(S(N)(=O)=O)cc2[N+](=O)[O-])n1 | inactive: 8.25%
42 | COc1ccc2c(C)nc(Nc3nc(-c4ccccc4)cc(=O)[nH]3)nc2c1 | inactive: 11.4%
43 | CN(C)S(=O)(=O)c1cccc(NC(=O)c2cc3c(=O)n4ccccc4nc3s2)c1 | inactive: -10.8%
44 | CC1CCN(C(=O)c2ccc(NS(=O)(=O)c3cccs3)cc2)CC1 | inactive: 14.7%

Row | SMILES | growth rescue (activation)
45 | CCOC(=O)c1c(CN2CCC(C)CC2)n(C)c2cc(Br)c(OC)cc12 | inactive: 11.6%
46 | O=[N+]([O-])c1ccc(Sc2cccc3cccnc23)c2cccnc12 | inactive: 10.7%
47 | CCN1CCN(C(=S)NCC(C)C)CC1 | inactive: -9.14%
48 | CC(=O)Nc1cccc(Oc2nc(NCCN(C)C)nc3ccsc23)c1 | inactive: 2.2%
49 | COc1cc(CNc2ncnc3c2ncn3[C@H]2CN(Cc3ccccc3)C[C@@H](COC(C)=O)O2)cc(OC)c1OC | inactive: 1.44%
50 | O=C(COC(=O)CNC(=O)C1CCCCC1)Nc1ccc(Br)cc1Br | inactive: 22.7%
51 | Cc1ccc(C)c(Nc2c(F)c(F)c(F)c(F)c2C(=O)O)c1 | inactive: 16.8%
52 | Cc1cccc(C)c1NC(=S)N(CCc1ccncc1)C(C)C | inactive: 4.75%
53 | O=C(c1cc(Br)ccc1Cl)N1CCCC1 | inactive: -2.74%
54 | O=C(CN(Cc1ccco1)C(=O)CNS(=O)(=O)c1ccc(Cl)cc1)NCc1ccco1 | inactive: 1.53%
55 | N#CCCn1cc(/C=N/NC(N)=S)c(-c2ccccc2)n1 | inactive: 8.77%
56 | CCOC(=O)c1cc2c(C(F)(F)F)cc(-c3cccnc3)nc2o1 | inactive: 4.53%
57 | c1ccc2c(Nc3ccc(N4CCOCC4)cc3)nc(N3CCOCC3)nc2c1 | inactive: -23.9%
58 | Cc1cc(C)nc(NC(C)(C)C(=O)O)n1 | inactive: -3.75%
59 | O=C(CN1C(=O)NC2(CCCC2)C1=O)NC(c1ccccc1)c1ccccc1 | inactive: -11.9%
60 | COC(=O)C1=C(C)N(Cc2ccccc2)C(=O)/C1=C\c1ccco1 | inactive: -29.9%
61 | O=C(NC1CCN(C(=O)Nc2ccc(F)cc2)CC1)c1ccc(F)cc1 | inactive: -2.01%
62 | Cc1cc(=O)[nH]c(SCC(=O)Nc2ccc3c(c2)OCCO3)n1 | inactive: 5.02%
63 | COc1ccc(/C=C2/Sc3ccc(C(=O)NCCCN4CCOCC4)cc3NC2=O)cc1OC | inactive: 5.13%
64 | CC1=Nc2nc(N3CCCCC3)c(C#N)c3c4c(nc(c23)N1)N(c1ccc(C(C)C)cc1)C(=O)C4 | inactive: 9.46%
65 | CCOC(=O)c1ccc(NC(=O)c2ccc(NC(=O)C3CCCO3)cc2)cc1 (stereo unspecified) | inactive: 17.7%
66 | COc1ccccc1NS(=O)(=O)c1ccc(O)c(C(=O)OCc2cccc([N+](=O)[O-])c2)c1 | inactive: 15.6%
